Data taken from paper PMC4336329 (PLoS ONE, 2015).
Hit rate of the full screen: of about 310,000 compounds, about 2,200 (0.71%) showed an effect of 50% or more. Effects have a minus sign here. The list shows a part of the results.

target: human ether-à-go-go-related gene (hERG) potassium channel (human, UniProt Q12809); assay: primary screen, population patch clamp on CHO cells stably expressing hERG
Sequence (Q12809 whole entry, looked up): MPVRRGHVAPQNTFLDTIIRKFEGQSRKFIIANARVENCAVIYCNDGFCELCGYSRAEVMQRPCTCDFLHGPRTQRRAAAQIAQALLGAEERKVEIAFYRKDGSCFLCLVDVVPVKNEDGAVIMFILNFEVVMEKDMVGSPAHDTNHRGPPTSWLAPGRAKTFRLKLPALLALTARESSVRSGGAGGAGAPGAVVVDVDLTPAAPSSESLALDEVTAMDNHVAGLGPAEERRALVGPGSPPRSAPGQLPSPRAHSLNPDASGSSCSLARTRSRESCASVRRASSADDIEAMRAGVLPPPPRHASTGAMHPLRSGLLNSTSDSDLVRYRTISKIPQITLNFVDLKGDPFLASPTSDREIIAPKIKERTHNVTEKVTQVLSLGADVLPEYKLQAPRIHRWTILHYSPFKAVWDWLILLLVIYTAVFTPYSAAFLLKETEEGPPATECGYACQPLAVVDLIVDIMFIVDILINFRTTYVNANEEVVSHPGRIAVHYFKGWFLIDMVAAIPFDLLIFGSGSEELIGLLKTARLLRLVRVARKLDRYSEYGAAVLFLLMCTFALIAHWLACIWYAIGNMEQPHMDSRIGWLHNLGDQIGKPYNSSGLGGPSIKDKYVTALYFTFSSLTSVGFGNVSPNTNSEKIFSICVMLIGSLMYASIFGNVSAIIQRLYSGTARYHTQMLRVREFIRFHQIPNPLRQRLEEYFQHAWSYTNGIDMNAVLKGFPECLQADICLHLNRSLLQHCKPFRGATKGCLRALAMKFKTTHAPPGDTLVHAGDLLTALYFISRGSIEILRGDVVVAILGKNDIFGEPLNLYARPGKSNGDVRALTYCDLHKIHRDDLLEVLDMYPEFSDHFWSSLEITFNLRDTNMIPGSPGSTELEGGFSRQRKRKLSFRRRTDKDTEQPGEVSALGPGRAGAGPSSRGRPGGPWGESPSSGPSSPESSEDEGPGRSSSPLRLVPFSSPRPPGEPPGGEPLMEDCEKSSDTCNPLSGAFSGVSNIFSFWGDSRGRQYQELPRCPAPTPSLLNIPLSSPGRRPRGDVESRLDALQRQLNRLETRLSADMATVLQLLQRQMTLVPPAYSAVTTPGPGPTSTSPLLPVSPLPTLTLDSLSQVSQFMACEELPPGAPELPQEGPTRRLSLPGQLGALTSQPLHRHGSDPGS

SMILES	hERG current change (%, negative = inhibition) at 1uM [%]
COC(=O)CN(C)C(=O)c1cccc(OC2CCN(S(=O)(=O)N(C)C)CC2)c1	13.6
COC(=O)c1c(NC(=O)c2ccc(S(=O)(=O)N3CCOCC3)cc2)sc2c1CCN(C(C)C)C2	8.34
CC(OC(=O)c1cc(Br)ccc1O)C(=O)Nc1ccc(S(=O)(=O)N2CCCC2)cc1 (stereo not drawn)	5.94
CC(C)C(=O)Nc1ncc2c(n1)CC(c1cccs1)CC2=O (stereo not drawn)	-1.71
COC(=O)c1cnc(Oc2ccc(NC(=O)NC(=O)c3c(F)cccc3Cl)cc2)cc1C(F)(F)F	12.2
C/C(=N\NC(=O)c1ccc(NS(=O)(=O)c2cccs2)cc1)c1ccncc1	8.14
COC(=O)c1c(-c2ccccc2)csc1NC(=O)C1CC=CCC1C(=O)O (stereo not drawn)	20.5
Cc1ccc(S(=O)(=O)N2CCC(C(=O)OCC(=O)N3CC(C)CC(C)C3)CC2)cc1C (stereo not drawn)	13.2
O=C(O)c1ccc(N/N=C/c2ccc(-c3ccccc3Cl)o2)cc1	14.3
C=CCNC(=O)c1ccc(-c2cccc([N+](=O)[O-])c2)o1	0.345
CCCSc1nc(N)c2c3c(sc2n1)CN(C)CC3	-2.01
COc1ccccc1CN1C[C@@H]2C[C@@H](c3cccc(C)c3)N3CCC[C@@]23C1=O	-2.68
CCc1sc(NC(=O)CCC(=O)O)nc1-c1cc2ccccc2oc1=O	16
c1csc(Cc2nn3c(-c4ccncc4)nnc3s2)c1	-4.09
Cc1cccc(NC(=O)/C(C#N)=C\c2cccnc2)c1	-0.281
CC(NC(=O)NC(=O)c1cccc(Cl)c1)c1ccccc1 (stereo not drawn)	15.4
COc1ccc(-c2noc(CCC(=O)NC3CCCCC3)n2)cc1OC	13.2
O=C(NCC(c1ccco1)N1CCc2ccccc2C1)c1ccc([N+](=O)[O-])cc1 (stereo not drawn)	-7.15
O=C(N/N=C/c1ccco1)c1ccc(Br)o1	15.9
Cc1cc([N+](=O)[O-])nn1CC(=O)N1CCc2ccccc2C1	2.28
CC(=O)c1ccc(NC2CC(O)C(O)CO2)cc1 (stereo not drawn)	6.92
CCCCn1c(-c2sccc2C)n[nH]c1=S	16
CC1CC(C)CN(c2cc(N(C)CCO)c([N+](=O)[O-])c3nonc23)C1 (stereo not drawn)	0.257

SMILES	hERG current change (%, negative = inhibition) at 1uM [%]
O=C(CCNc1cc(Cl)cc(Cl)c1)c1cccs1	19.9
Cc1ccccc1NC(=S)N1CCN(c2ccccc2)CC1	16.9
CCN(CC(=O)Nc1c(F)cccc1F)C(=O)Cc1ccccc1	21.1
COc1ccc(CCNC(=O)c2nonc2N)cc1OC	3.98
O=C(N1CCCC1)n1c(Cc2ccccc2)nc2ccccc21	-5.36
CCOc1ccc(Br)cc1S(=O)(=O)Nc1ccc(C(=O)Nc2ccccc2OC)cc1	7.7
Cn1c(C(=O)NN)cc2cc(OCc3ccccc3)ccc21	14.4
COc1cccc(C2CC(=O)Nc3c2c(=O)[nH]c2ncnn32)c1 (stereo not drawn)	2.55
S=C(NCCC1=CCCCC1)Nc1ccc(Cl)cc1	10.1
CC(C)NC[C@@H](O)c1ccc(O)c(O)c1.O=C(O)C(O)C(O)C(=O)O	15.6
Cc1sc2nc3n(c(=O)c2c1C)CCCS3	1.27
Cc1cccc(C)c1N1C(=O)c2ccccc2C1=O	1.61
CCOC(=O)C1(CCc2ccccc2)CCN(C(=O)c2cccc(C)n2)CC1	7.53
O=C(Nc1ncnc2sc3c(c12)CCC3)c1ccco1	6.71
COc1ccccc1/C=C/C=N/n1c(COc2ccccc2)n[nH]c1=S	11.9
O=C(N/N=C/c1ccc(Cl)s1)C(O)c1ccccc1 (stereo not drawn)	16.4
CCN=C1SC(CC(=O)Nc2ccc3c(c2)OCO3)C(=O)N1CC (stereo not drawn)	8.07
COCCNc1nc(N2CCCCC2)c2cnn(C)c2n1	8.76
O=C(OC1Cn2c(=O)ccc(=O)n2C1)c1ccccc1	10.7
CN(C)Cc1c(C(=O)N/N=C/c2ccoc2)nnn1-c1nonc1N	1.15
Cc1cc(C(=O)CN2C(=O)c3ccccc3S2(=O)=O)c(C)n1-c1ccccc1	12.1
CN(C)C(=O)N1CCN(S(=O)(=O)c2ccc3ccccc3c2)CC1	10.5
CCOC(=O)Cn1ccc(NC(=O)COc2ccc(F)cc2)n1	3.4

SMILES	hERG current change (%, negative = inhibition) at 1uM [%]
Clc1ccc2nsnc2c1[NH2+]C1=NCCN1.[Cl-]	10.9
CCOC(=O)C1(Cc2ccc(O)cc2)NC(c2ccccc2F)C2C(=O)N(C)C(=O)C21 (stereo not drawn)	1.18
O=C(CCc1nnc(Cc2ccc(-c3ccccc3)cc2)o1)NCCc1ccccn1	6.67
Cc1[nH]c(=S)[nH]c(=O)c1CCOc1ccccc1	11.4
COC(=O)c1ccc(OC(=O)c2nn(C)cc2Cl)c(OC)c1	11.5
COC(=O)C1=C(C)NC(=O)C1(NC(=O)CN1CCCC1=O)C(F)(F)F (stereo not drawn)	4.49
O=C(O)C(=O)O.O=[N+]([O-])c1cc2c(cc1CNCCc1ccc3c(c1)OCO3)OCO2	-13.2
CCOc1ccc(C(C(=O)NCCOC)N(CCOC)C(=O)CCC(=O)Nc2ccccn2)cc1 (stereo not drawn)	-8.39
Cc1cc2c(N=NC(=O)CCc3ccccc3)c(O)[nH]c2cc1Br	5.35
Cc1ccc(NC(=S)N(Cc2ccc(Cl)cc2)Cc2ccc(C(=O)O)cc2)cc1Cl	-0.489
CC(C)C(=O)N1CCN(c2ccc([N+](=O)[O-])c(NC(C)c3ccccc3)c2)CC1 (stereo not drawn)	7.73
CCOCCCNC(=O)CN1CCN(Cc2ccccc2C)C1=O	4.41
NC(=O)c1cc2ccccc2o/c1=N/NC(=O)c1cccc(Cl)c1	1.94
O=C(c1cc(-c2cccc(O)c2)on1)N1CCCC1	10.2
O=C(CCC(=O)N1CCSc2ccccc21)Nc1cccc(F)c1	3.36
CCOC(=O)CSc1nc2cc(C(=O)N3CCC(C(N)=O)CC3)ccc2c(=O)n1C1CCCCC1	4.05
COc1ccc(-n2c(Cc3cc(=O)[nH]c(=O)[nH]3)nnc2SCC(=O)Nc2ccccc2)cc1	4.28
CSCCC(NS(=O)(=O)c1ccc(Cl)c(Cl)c1)C(=O)O (stereo not drawn)	7.31
CCN(CC)S(=O)(=O)c1ccc(C(=O)OCC(=O)c2ccc3c(c2)NC(=O)CO3)cc1	3.29
CC(C)CCNC(=O)CN(C(=O)CCC(=O)Nc1ccccn1)c1ccc2c(c1)OCCO2	3.63
Cc1ccccc1CSc1nnnn1-c1ccc(C(N)=O)cc1	11.6
COC(=O)CCC(=O)NC(=S)Nc1sc(C)c(C)c1C(N)=O	8.93
CCN(CC)C(=O)Cn1cnc2c1c(=O)n(C)c(=O)n2C	-4.8

SMILES	hERG current change (%, negative = inhibition) at 1uM [%]
NS(=O)(=O)c1ccc(NC(=O)CN2C(=O)CCC2=O)cc1	2.51
CCCn1c(SCC(=O)NCc2ccccc2)nnc1-c1ccncc1	11.1
O=S(=O)(NCc1ccc2c(c1)OCO2)c1cnc[nH]1	15
COc1ccc(NC(=O)CSc2nc(N3CCCCC3)nc(N3CCCCC3)n2)cc1	7.24
COc1ccccc1C(=O)NCC(=O)OCC(=O)c1ccc2c(c1)-c1ccccc1C2	4.07
Cl.O=C1CCN=C(Nc2ccc(F)cc2)N1Cc1ccccc1	-2.25
COC(=O)c1ccccc1NC(=O)C1CCCN(S(=O)(=O)c2ccc(OC)cc2)C1 (stereo not drawn)	9.71
O=C(Nc1cccc(S(=O)(=O)N2CCCCC2)c1)C1CC(=O)N(c2ccc3c(c2)OCCO3)C1 (stereo not drawn)	14.8
CC(=O)Nc1cccc(NC(=O)CSc2nnc3ccc(-c4ccncc4)nn23)c1	-6.2
CC(C)n1cc(/C=C2/NC(=O)NC2=O)c2ccccc21	8.64
Cl.O=C(/C=C/c1cccc(OCc2ccccc2)c1)c1cccnc1	17.4
FC(F)(F)c1nc(Oc2ccccc2)c2ccccc2n1	13.6
COc1cccc(S(=O)(=O)NCc2ccc3c(c2)OCO3)c1	-2.94
Cc1cc2nc(SC(C)C(=O)O)[nH]c2cc1C (stereo not drawn)	24.1
Cc1nn(CC(=O)Nc2ccccc2C(F)(F)F)c(=O)c2cccn12	9.96
COc1ccc(OC)c(S(=O)(=O)N(C)CC(=O)N2CCN(c3ccc(F)cc3)CC2)c1	-14.7
CCOC(=O)N1CCN(S(=O)(=O)c2ccc([N+](=O)[O-])cc2)CC1	5.8
CCN(CCO)c1cc(Cl)nc(SC)n1	-8.84
COc1ccc(S(=O)(=O)N2CCOCC2)cc1NC(=O)c1ccc(Cl)cc1	5.23
CCc1ccc(N2CC(C(=O)Nc3ccc4c(c3)OCCO4)CC2=O)cc1 (stereo not drawn)	-18.5
CCC(=O)NC(=S)Nc1cccc(NC(=O)c2ccc(Cl)cc2Cl)c1	11.9
